Experimental findings from PubChem BioAssay AID360 (National Center for Advancing Translational Sciences (NCATS), 2006) are described below.

The whole screen tested about 48,000 compounds, of which about 550 (1.1%) were called active. About 4% were inconclusive and are not listed. No stated cut-off is given here; in the data, active means potency below about 15 µM; inconclusive means mostly about 16 µM to 33 µM; inactive means weaker than that. Some of the results follow.
Potency means the concentration at half of the fitted maximal effect.

For this experiment, the target named is Lysosomal acid glucosylceramidase (Homo sapiens) (UniProt P04062). The experiment is described as follows: Glucocerebrosidase.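 Further: the screen sought inhibitors.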 As to conditions: purified enzyme, resorufin glucoside fluorescence (screen aimed at inhibitors), 20 min. The procedure, abridged: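 Normal human glucocerebrosidase (0.2 nM final) was assayed with resorufin β-D-glucopyranoside (30 uM final) in 50mM citric acid/KH2PO4, 10mM sodium taurocholate, 0.01% tween-20, pH 5.9. Compounds were titrated; fluorescence (Ex 548, Em 600) read after 20 min at RT.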
Sequence of UniProt P04062 (P04062 whole entry, looked up): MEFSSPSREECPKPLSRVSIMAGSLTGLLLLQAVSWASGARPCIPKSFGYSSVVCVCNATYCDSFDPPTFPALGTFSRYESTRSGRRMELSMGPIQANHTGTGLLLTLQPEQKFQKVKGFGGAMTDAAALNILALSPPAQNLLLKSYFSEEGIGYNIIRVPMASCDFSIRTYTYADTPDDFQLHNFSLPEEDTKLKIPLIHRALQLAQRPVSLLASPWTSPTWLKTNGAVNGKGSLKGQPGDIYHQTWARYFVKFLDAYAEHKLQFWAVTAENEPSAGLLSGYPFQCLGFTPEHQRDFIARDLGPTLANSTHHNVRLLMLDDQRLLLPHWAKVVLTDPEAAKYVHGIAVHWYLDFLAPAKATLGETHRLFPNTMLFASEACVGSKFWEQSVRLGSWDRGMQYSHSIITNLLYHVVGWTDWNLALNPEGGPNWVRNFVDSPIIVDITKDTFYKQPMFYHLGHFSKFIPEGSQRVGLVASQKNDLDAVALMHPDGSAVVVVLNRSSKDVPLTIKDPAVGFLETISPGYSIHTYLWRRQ
`CCOC(=O)N1CCN(C(=O)c2cc(-c3ccc(F)cc3)[nH]c2C)CC1`: the Potency is inactive: > 76.9 µM.
Then `Cc1csc(SCc2nnc(-c3ccccc3Br)o2)n1`, with inactive: > 76.9 µM; and `CCCc1cc(N2CCCC(C(=O)Nc3ccc(OC)cc3OC)C2)n2ncnc2n1` (configuration not stated), with inactive: > 76.9 µM.
`C/C(N)=C(/C#N)C(=O)CSc1nnc(Cc2ccccc2F)n1N`: the Potency is inactive: > 76.9 µM.
In the case of `COC(=O)c1[nH]c2cccc(OC)c2c1NC(=O)CCN1CC(C)CC(C)C1` (configuration not stated), the Potency is inactive: > 76.9 µM.
Turning to `CC1=CC(C)(C)N2C(=O)C3(C(C#N)=C(N)Oc4cc(C)oc(=O)c43)c3cccc1c32` (configuration not stated), the Potency is inactive: > 76.9 µM.
Take `O=C1OC(NC(=O)c2ccccc2)C(n2cc(CO)nn2)=C1Cl` (configuration not stated): the Potency is inactive: > 76.9 µM.
On to `CCOC(=O)c1ccc(NC(=O)CCc2c(C)nc3ncnn3c2C)cc1`, for which the Potency is inactive: > 76.9 µM.
Then `C/C(=C1/SC(N2CC(C)OC(C)C2)=NC1=O)c1ccccc1` (configuration not stated), with inactive: > 76.9 µM.
Then `COc1ccc(NC(=O)c2ccc3c(c2)OCO3)cc1Cl`, with inactive: > 76.9 µM; and `CN1CCN(C(CNS(=O)(=O)c2ccc(F)cc2)c2cccnc2)CC1` (configuration not stated), with inactive: > 76.9 µM.
Next, `COC(=O)c1ccccc1NC(=O)CN(CCc1ccccc1)S(C)(=O)=O`: inactive: > 76.9 µM.
For `COC(=O)C1C(=O)NC(SC)=C(C#N)C1c1ccccc1F` (configuration not stated), the Potency is inactive: > 76.9 µM.
Then `Oc1ccc(N2CCN(C(c3cccnc3)c3nnnn3Cc3ccccc3)CC2)cc1` (configuration not stated), with inactive: > 76.9 µM; and `CC(C)COC(=O)Nc1ccccc1C(=O)N1CCOCC1`, with inactive: > 76.9 µM; and `Cc1nn(-c2ccccc2)c(C)c1NC(=O)c1ccc(S(=O)(=O)N2CCCC2)cc1`, with inactive: > 76.9 µM.
Then `CCCN1C(=O)c2ccc(C(=O)NC3=NCCS3)cc2C1=O`, with inactive: > 76.9 µM; and `O=C(COCCOCC(=O)N(c1ccccn1)C1CCCCC1)N(c1ccccn1)C1CCCCC1`, with inactive: > 76.9 µM; and `COc1ccc(-c2noc(-c3ccccc3C(=O)NCc3ccco3)n2)cc1`, with inactive: > 76.9 µM.
Next, `COc1ccc(CC(NC(C)=O)C(=O)N2CCN(C(=O)N(C(C)C)C(C)C)CC2)cc1` (configuration not stated): inactive: > 76.9 µM; `COC(=O)c1ccccc1NC(=O)c1cc2sccc2n1C`: inactive: > 76.9 µM; `CCOC(=O)CSc1nc2c(c(=O)[nH]c(=O)n2C)n1CCc1ccccc1`: inactive: > 76.9 µM.
For the compound `c1ccc(Nc2nn[nH]n2)cc1`, the Potency is inactive: > 76.9 µM.
Then `CCCn1c(SCC(=O)Nc2c(CC)cccc2CC)nnc1C(C)C`, with inactive: > 76.9 µM.
On to `CCOC(=O)c1nnn(-c2nonc2N)c1CSc1ccccn1`, for which the Potency was inactive: > 76.9 µM.
Next, `N#CC1(c2c(O)nc3n(c2=O)CCCS3)CCCCC1`: inactive: > 76.9 µM; `O=C(c1ccccc1NS(=O)(=O)c1cccs1)N1CCCC1`: inactive: > 76.9 µM.
Consider `Cc1ccc(C(=O)NCc2ccc3c(c2)OCO3)cc1S(=O)(=O)N1CCOCC1`, for which the Potency is inactive: > 76.9 µM.
Regarding `O=C(O)CN1CCOCCOCCN(CC(=O)O)CCOCCOCC1`, the Potency was inactive: > 76.9 µM.
Then `CCCOc1ccc(/C(O)=C2/C(=O)C(=O)N(CCCOC)C2c2ccncc2)cc1` (configuration not stated), with inactive: > 76.9 µM; and `COc1nnc(-c2ccc(N3CCCCC3)c(N)c2)c2ccccc12`, with “inactive”.
Turning to `COc1cccc(Nc2nc(-c3sc(N)nc3C)cs2)c1`, the Potency entry is “inactive”.
For `COc1nc2ccccc2cc1-c1noc(-c2cccnc2)n1`, the Potency is inactive: > 76.9 µM.
As to `CCCn1c(=O)c2ccccc2n2c(SCC(=O)c3cc(C)n(CC4CCCO4)c3C)nnc12` (configuration not stated), the Potency is inactive: > 76.9 µM.
Next, `CC(=O)c1c(C)[nH]c(C(=O)NCCN2CCC(C)CC2)c1C`: inactive: > 76.9 µM; `OC(COc1ccc2cc(Br)ccc2c1)CN1CCCC1` (configuration not stated): inactive: > 76.9 µM; `Nc1ccc(-c2nc3ccc(-c4nc5ccccc5o4)cc3[nH]2)cc1`: inactive: > 76.9 µM.
Next, `OCc1nn2c(c1Br)NC(c1ccccc1)CC2C(F)(F)F` (configuration not stated): inactive: > 76.9 µM.
Then `CC(C)C(C(=O)NCC1CCCO1)N(Cc1ccco1)C(=O)CNS(=O)(=O)c1ccc(F)cc1` (configuration not stated), with inactive: > 76.9 µM.
Turning to `CC(C)N1C(=O)c2ccccc2C1C(=O)NC1CCCCCC1` (configuration not stated), the Potency is inactive: > 76.9 µM.
Turning to `COc1cccc(-n2c(COc3ccccc3C)nnc2SCC(=O)O)c1`, the Potency was inactive: > 76.9 µM.
For `CCOC(=O)C1=C(c2ccccc2)Nc2ncnn2C1c1cc(OC)cc(OC)c1OC` (configuration not stated), the Potency was inactive: > 76.9 µM.
Next, `NC(=O)CSc1nnc2sc3ccccc3n12`: inactive: > 76.9 µM; `COc1ccc(NC(=O)CSc2nnc(-c3cccs3)n2-c2ccccc2)cc1`: inactive: > 76.9 µM.
As to `CCOC(=O)C1C(=O)CC(C)(O)C(C(=O)OCC)C1c1ccccc1OC` (configuration not stated), the Potency was inactive: > 76.9 µM.
Consider `CC1(c2ccc(Cl)cc2)NC(=O)N(CC(=O)NC(=O)NCc2ccco2)C1=O` (configuration not stated), for which the Potency was inactive: > 76.9 µM.
Take `CCCNC(=O)Cc1ccsc1`: the Potency was inactive: > 76.9 µM.
For the compound `COC(=O)c1ccc(COC(=O)c2ccc(-n3cnnn3)cc2)o1`, the Potency is inactive: > 76.9 µM.
As to `CCc1n[nH]c2c1C(=O)CC(C)(C)C2`, the Potency is inactive: > 76.9 µM.
Next, `CSC(=NCCCN1CCOCC1)NS(=O)(=O)c1cccs1`: inactive: > 76.9 µM; `O=C(NC1CCCC1)NS(=O)(=O)c1ccccc1Cl`: inactive: > 76.9 µM; `CCOC(=O)c1ccc(NC(=O)CCc2nc(-c3ccc(C)cc3)no2)cc1`: inactive: > 76.9 µM.
Then `N#CC1=C2C=Cc3ccccc3N2CCCC1=O`, with inactive: > 76.9 µM.
As for `COc1cc2nc(CN(C)CC(=O)Nc3ccc(N4CCOCC4)cc3)[nH]c(=O)c2cc1OC`, the Potency was inactive: > 76.9 µM.
Then `COc1cccc(-n2cc3c(=O)n(C)c(=O)n(C)c3c2)c1`, with inactive: > 76.9 µM.
Then `Cn1c(C(O)c2ccc3c(c2)OCO3)nc2ccccc21` (configuration not stated), with inactive: > 76.9 µM; and `COc1ccc2c(C(=O)CN3CCN(CCO)CC3)c[nH]c2c1`, with “inactive”; and `COc1cc(C(=O)Oc2ccccc2)ccc1OCc1c(C)noc1C`, with inactive: > 76.9 µM.
As to `O=C(NCc1ccccn1)c1cc2ccccc2oc1=O`, the Potency was inactive: > 76.9 µM.
Regarding `OC(c1ccc(Cl)cc1Cl)C(Cc1cccnc1)n1cncn1` (configuration not stated), the Potency was inactive: > 76.9 µM.
On to `O=C1CC(c2ccccc2)n2ncnc2N1` (configuration not stated), for which the Potency is inactive: > 76.9 µM.
Next, `CCN(CCCNC(=O)CCn1c(=O)[nH]c2ccccc2c1=O)c1ccccc1`: inactive: > 76.9 µM.
Consider `c1ccc(-c2n[nH]c3c2CCC3)cc1`, for which the Potency was inactive: > 76.9 µM.
As for `Cc1ccc(CN2CCN(C(=O)C3CCCO3)CC2)cc1` (configuration not stated), the Potency is inactive: > 76.9 µM.
For `COC(=O)c1ccccc1NC(=O)Cn1c(-c2nonc2N)nc2ccccc21`, the Potency is inactive: > 76.9 µM.
Then `CCC(=O)Nc1ccc(N2CCN(Cc3ccccc3F)CC2)cc1`, with inactive: > 76.9 µM.
Then `Cc1nnc(SCc2ccc(F)cc2)s1`, with inactive: > 76.9 µM.
Next, `COc1cc2[nH]c(=O)c(C(=O)NCCCN3CCCCC3)c(O)c2cc1OC`: inactive: > 76.9 µM; `CCOC(=O)c1[nH]c2ccc(OC)cc2c1NS(=O)(=O)c1ccc(OC)cc1OC`: inactive: > 76.9 µM; `CCOC(=O)c1ccc(Oc2c(C)oc3c(CN4CCN(C)CC4)c(O)ccc3c2=O)cc1`: “inactive”.
As to `O=C(CN1C(=O)c2ccccc2C1=O)N1CCOCC1`, the Potency is inactive: > 76.9 µM.
As for `Cc1nc2ccc(NC(=O)c3c(-c4ccccc4)noc3C)cc2s1`, the Potency was inactive: > 76.9 µM.
On to `CC(C)OC(=O)CSc1nnc(-c2ccc(O)cc2)n1Cc1ccccc1`, for which the Potency is inactive: > 76.9 µM.
In the case of `CCc1cc2c(=O)c(-c3cscn3)coc2cc1OC`, the Potency is inactive: > 76.9 µM.
Then `O=C(Cc1ccccc1)Nc1nc(-c2cccs2)cs1`, with inactive: > 76.9 µM; and `COc1cccc(C(=O)CSc2nnc(-c3cc(OC)cc(OC)c3)o2)c1`, with inactive: > 76.9 µM.
In the case of `COc1ccccc1NC(=O)C1C2CCCCC21` (configuration not stated), the Potency was inactive: > 76.9 µM.
Then `CC(C)Cn1c(=O)c(C(=O)Nc2ccncc2)c(O)c2ccccc21`, with inactive: > 76.9 µM; and `CCOC(=O)c1c(C)[nH]c(C(=O)Cn2nnc(-c3ccc(Cl)cc3)n2)c1C`, with inactive: > 76.9 µM; and `O=S1(=O)CCN2C(=N1)Sc1c2ccc2c1CCCC2`, with inactive: > 76.9 µM.
Then `COC(=O)c1cn(C)c2ccc(S(=O)(=O)N3CC(C)CC(C)C3)cc2c1=O` (configuration not stated), with inactive: > 76.9 µM; and `c1ccc(SCCOCCn2cncn2)cc1`, with inactive: > 76.9 µM; and `CCOC(=O)c1cc2c(C(F)(F)F)cc(-c3cccnc3)nc2o1`, with “inactive”.
For the compound `O=C(Nc1nccs1)c1cc2sccc2n1Cc1ccc(F)cc1`, the Potency is inactive: > 76.9 µM.
As to `COCCn1c(=S)[nH]c2cc(C(=O)N3CCN(c4ccccc4OC)CC3)ccc2c1=O`, the Potency is inactive: > 76.9 µM.
Then `Cc1cccc(C)c1NC(=O)N1CCC(n2cnc3ccccc32)CC1`, with inactive: > 76.9 µM.
Take `Cc1cc(NC(=O)COC(=O)CCC(=O)c2ccc(F)cc2)no1`: the Potency was inactive: > 76.9 µM.
Then `Cn1c(=O)c(C(=O)NCCO)c(O)c2ccccc21`, with inactive: > 76.9 µM; and `CCOCCCNC(=O)C(NC(=O)c1ccc(=O)[nH]c1)c1ccccc1` (configuration not stated), with inactive: > 76.9 µM.
Then `C=CCN1C(=O)C(O)(CC(=O)c2c(C)n[nH]c2C)c2cc(Br)ccc21` (configuration not stated), with inactive: > 76.9 µM; and `C/C(NC1CCCCC1)=C(/C#N)C(=O)NCCN1CCOCC1`, with inactive: > 76.9 µM.
Next, `Cc1ccccc1CN(c1ccc(C(=O)N2CCCC2)cc1)S(C)(=O)=O`: inactive: > 76.9 µM.
